According to publication PMC4336329 (PLoS ONE, 2015):
The whole screen tested about 310,000 compounds, of which about 14,000 (4.5%) showed an effect of 50% or more. Effects have a minus sign here. This is one part of the list.

biological target: human ether-à-go-go-related gene (hERG) potassium channel (human, UniProt Q12809); experiment: primary screen, population patch clamp on CHO cells stably expressing hERG
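Also: peak tail current of the secondary pulse compared with the same well before compound.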

Sequence of human ether-à-go-go-related gene (hERG) potassium channel (Q12809 whole entry, looked up): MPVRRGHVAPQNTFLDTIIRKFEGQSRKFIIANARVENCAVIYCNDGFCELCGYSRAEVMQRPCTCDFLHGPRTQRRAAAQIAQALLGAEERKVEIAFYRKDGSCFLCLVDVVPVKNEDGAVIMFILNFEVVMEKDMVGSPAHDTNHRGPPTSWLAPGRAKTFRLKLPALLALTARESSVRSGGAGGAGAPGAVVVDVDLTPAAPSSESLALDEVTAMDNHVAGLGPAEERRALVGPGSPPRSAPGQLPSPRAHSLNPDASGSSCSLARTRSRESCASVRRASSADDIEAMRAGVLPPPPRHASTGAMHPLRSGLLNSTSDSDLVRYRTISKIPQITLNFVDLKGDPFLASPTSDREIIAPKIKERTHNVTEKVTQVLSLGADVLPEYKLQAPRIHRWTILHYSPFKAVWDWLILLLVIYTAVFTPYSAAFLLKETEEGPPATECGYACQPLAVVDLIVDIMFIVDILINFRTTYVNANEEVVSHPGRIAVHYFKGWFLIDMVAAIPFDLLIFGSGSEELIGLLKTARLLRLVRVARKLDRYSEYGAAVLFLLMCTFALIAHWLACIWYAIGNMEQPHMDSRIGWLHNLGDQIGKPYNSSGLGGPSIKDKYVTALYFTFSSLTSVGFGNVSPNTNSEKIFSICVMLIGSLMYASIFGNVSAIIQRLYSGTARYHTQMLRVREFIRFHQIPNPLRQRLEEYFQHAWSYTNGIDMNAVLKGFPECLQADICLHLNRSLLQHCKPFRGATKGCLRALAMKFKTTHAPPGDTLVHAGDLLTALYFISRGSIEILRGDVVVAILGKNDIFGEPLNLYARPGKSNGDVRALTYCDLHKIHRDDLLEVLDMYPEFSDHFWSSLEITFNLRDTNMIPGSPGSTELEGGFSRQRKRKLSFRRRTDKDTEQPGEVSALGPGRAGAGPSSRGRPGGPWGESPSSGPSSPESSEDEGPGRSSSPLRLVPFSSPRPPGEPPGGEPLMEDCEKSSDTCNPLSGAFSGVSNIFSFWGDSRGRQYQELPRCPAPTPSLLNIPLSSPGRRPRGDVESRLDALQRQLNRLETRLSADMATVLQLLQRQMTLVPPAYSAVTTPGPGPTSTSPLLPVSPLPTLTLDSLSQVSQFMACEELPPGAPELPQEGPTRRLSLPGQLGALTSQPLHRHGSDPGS

In order of falling “hERG current change (%, negative = inhibition) at 10uM” value:
1. CCOC(=O)Cc1ncccc1C(=O)Nc1ccc(OC)cc1  30.6%
2. O=C(Nc1ccccc1)OCCCCCOC(=O)Nc1ccccc1  22.2%
3. Cc1ccc(NC(=O)C(=O)NN=C2CCCC2)cc1C  21.8%
4. CCn1cc(S(=O)(=O)Nc2nc3ccc(OC)cc3s2)cn1  19.7%
5. Cc1cc([N+](=O)[O-])ccc1NCc1cccc2ccccc12  18.9%
6. CCOc1ccccc1NC(=O)CCS(=O)(=O)c1ccc(Br)cc1  18.2%
7. Cl.NC(c1ccccc1)c1cccnc1 (centres unmarked)  18.1%
8. O=C(Cc1ccc(Cl)cc1)NCc1ccccc1Cl  18%
9. CN(C)c1ccc2c(c1)Sc1cc(N(C)C)ccc1N2C(=O)c1ccccc1  17.8%
10. Cc1cc(=O)c2cc(NC(=O)c3ccccc3Cl)ccc2[nH]1  17.3%
11. Cn1c(SCC(=O)N2CCCC2)nc2cccnc21  16.9%
12. O=[N+]([O-])c1ccc(C2CNC(c3ccccc3)O2)cc1 (centres unmarked)  15.9%
13. CC(C)NC(=O)Cn1c(=O)n(CC(=O)N2CCCCC2)c(=O)c2sccc21  15.9%
14. Oc1c(CN2CCCC(C(F)(F)F)C2)cc(Cl)c2ccccc12 (centres unmarked)  14.7%
15. COc1ccc(-c2nnc(COc3ccc(Br)cc3C)o2)cc1  14.3%
16. O=C(CCc1nnc(-c2ccccc2)o1)NC1CCCCC1  14.3%
17. Cc1cc(C)n2nc(C(=O)N3CCN(Cc4ccc5c(c4)OCO5)CC3)nc2n1  13.8%
18. CCOC(=O)c1ccc(NC(=O)CCNS(=O)(=O)c2cccs2)cc1  13.6%
19. Cc1cc(NC(=O)CCC(=O)N2CCC3(CC2)OCCO3)no1  12.5%
20. Cc1nnc(SCc2ccccc2)n1CC1CCCO1 (centres unmarked)  11.9%
21. CCCCOn1c(C)c(C(=O)OCC)c2c3no[n+]([O-])c3ccc21  11.7%
22. COc1cc(C(=O)NCC(c2cccs2)N2CCOCC2)cc(OC)c1OC (centres unmarked)  11.5%
23. COc1cccc2cc(-c3nnc(SCC(=O)NCc4ccccc4)n3C)oc12  9.04%
24. COC(=O)C1=C(C)NC(C)=C([N+](=O)[O-])C1c1ccccc1C(F)(F)F (centres unmarked)  8.6%
25. COc1ccccc1NC(=O)N1CCC(NC(=O)C(Cc2ccccc2F)NC(C)=O)CC1 (centres unmarked)  8.48%
26. O=C(CN1C(=O)c2ccccc2C1=O)N(CCO)Cc1ccccc1  8.29%
27. Cc1cccc(NC(=O)C23CCC(C)(C2Br)C3(C)C)c1 (centres unmarked)  7.37%
28. Cc1ccc2c(n1)CC(C)(C)C/C2=N\O  7.03%
29. Cc1ccc(-c2sc(-c3ccccc3)nc2CC(=O)Nc2ccccc2F)cc1  6.09%
30. CCn1c(N)nc2ccccc21  5.9%
31. O=C(OC1CO[C@H]2O[C@@H]1[C@H](OC(=O)c1ccccc1)[C@H]2OC(=O)c1ccccc1)c1ccccc1 (some centres unmarked)  5.89%
32. CSc1cccc(NC(C)=O)c1  5.83%
33. O=C(NN1C(=O)C2C3C=CC(O3)C2C1=O)c1ccccc1 (centres unmarked)  5.64%
34. CCCCN(C(=O)CSc1nnc(-c2ccco2)o1)c1c(N)n(Cc2ccccc2)c(=O)[nH]c1=O  4.8%
35. COc1cccc(OCCNc2cc(N3CCOCC3)ccc2[N+](=O)[O-])c1  4.18%
36. c1ccc(CCc2cc3ccccc3[nH]2)cc1  3.91%
37. COCCOC(=O)C1=C(C)Nc2ncnn2C1c1ccco1 (centres unmarked)  2.64%
38. Cc1cc2n(n1)C(c1ccc3c(c1)OCO3)Nc1c(C)cccc1-2 (centres unmarked)  2.58%
39. NS(=O)(=O)c1ccc(CCNc2cc(=O)n(Cc3ccc(F)cc3)c(=O)[nH]2)cc1  -0.0138%
40. Cc1ccc(SCC(=O)OCC(=O)N(CCC#N)c2ccccc2)cc1  -0.0528%
41. Cn1c(Cn2c(=O)sc3ccccc32)nnc1SCC(=O)NCc1ccccc1  -0.25%
42. CC(=O)c1nn(-c2ccccc2)cc1C(=O)c1cccc(Br)c1  -0.808%
43. Cc1nc(NC(=S)NC(=O)c2ccccc2)sc1C(=O)N(C)C  -1.09%
44. NC(=O)NCCc1ccccc1  -1.42%
45. O=C(O)c1c2c(nc3ccc(S(=O)(=O)N4CCC(C(=O)N5CCCCC5)CC4)cc13)CCCC2  -1.48%
46. CSc1nc2c(c(=O)[nH]1)C(c1ccc(Br)cc1)CC(=O)N2 (centres unmarked)  -2.36%
47. C/C=C(/C)C(=O)Nc1cccc(C2=NOC3(C2)C[C@@H](C(N)=O)N(C(=O)[C@H]2CCC(=O)N2)C3)c1 (some centres unmarked)  -2.5%
48. COc1ccc(OC)c(CN2CCN(C(=O)Cc3ccccc3)CC2)c1.O=C(O)C(=O)O  -4.63%
49. CCCCn1ccnc1C(=O)c1cc(S(=O)(=O)N2CCOCC2)ccc1C  -4.88%
50. O=S(=O)(c1ccc(Cl)s1)N1CCCCC1  -5.21%
51. O=C1C2CCCN2C(c2cccnc2)N1c1cccc(Cl)c1 (centres unmarked)  -5.37%
52. Cc1n[nH]c(C)c1S(=O)(=O)N1CCCC(C(=O)N2CCc3ccccc32)C1 (centres unmarked)  -5.49%
53. c1ccc(Cn2ncc3c(NCc4ccco4)ncnc32)cc1  -6.2%
54. Cc1cc(C)cc(OCC(O)Cn2nc(C)cc2C)c1 (centres unmarked)  -6.38%
55. COc1ccc(CNC(=O)N2CCN(S(=O)(=O)c3ccccc3F)CC2)cc1  -7.02%
56. COCCn1c(SCC(=O)N2CCCc3ccccc32)nnc1-c1ccoc1C  -7.38%
57. CCCOc1ccc(-c2nc(N)n[nH]2)cc1  -7.44%
58. CCOc1ncccc1C(=O)Nc1cc(S(=O)(=O)N2CCCCC2)ccc1OC  -8.23%
59. CN1CCC(CNC(=O)Nc2ccccc2)(c2ccccc2)CC1  -8.58%
60. COc1ccc2c(c1)c1c(n2C(C)=O)C(OC(C)=O)=NCC1  -8.94%
61. O=C(COC(=O)c1ccccc1O)Nc1cc(S(=O)(=O)N2CCCCCC2)ccc1Cl  -9%
62. N#Cc1cccc(-n2c(-c3ccccc3)nnc2-c2ccccc2)c1C#N  -9.39%
63. O=C(NCc1ccccc1)C1=C[C@H](C2CC2)C[C@H](OCCCCO)O1  -10.1%
64. Cn1c(=O)c(-c2ccccc2)nc2ccccc21  -11.6%
65. COc1ccc(S(=O)(=O)N2CCOC2CNC(=O)C(=O)NCCc2c[nH]c3ccccc23)cc1C (centres unmarked)  -12%
66. Cc1cccc(NC(=O)N2CCC(c3nc4ccccc4o3)CC2)c1  -12.4%
67. COc1ccc2c(c1)C1OCCC1C(c1ccco1)N2 (centres unmarked)  -12.5%
68. CC(=O)Nc1ccc(S(=O)(=O)N(Cc2ccccc2)C(C)C)cc1  -13%
69. O=C(OCCOc1cccc(Cl)c1)c1cc(S(=O)(=O)N2CCOCC2)ccc1F  -14%
70. O=C(CN1C(=O)NC(c2ccccc2)(c2ccccc2)C1=O)N1CCN(c2ccccc2F)CC1  -17.4%
71. O=c1cc(CN2CCN(c3ccc(F)cc3)CC2)nc2sccn12  -19%
72. CCCCN(CC)CCNC(=O)Cn1cnc2sc(C)c(S(=O)(=O)N3CCC(C)CC3)c2c1=O  -19.1%
73. COc1ccc(C)c2sc(N3CCCC3)nc12  -20.2%
74. c1csc(-c2nc(NCC3CCCO3)c3ccccc3n2)c1 (centres unmarked)  -20.5%
75. Cc1ccc(NC(=O)CSc2ncnc3ccccc23)cc1S(=O)(=O)N1CCCCCC1  -22.6%
76. Cc1ccc(S(=O)(=O)NCCNc2ccc([N+](=O)[O-])cc2)cc1  -22.8%
77. c1ccc(OCCn2c(-c3ccco3)nc3ccccc32)cc1  -24%
78. Cc1cccc(/C=N/c2sc3c(c2C(=O)OC(C)(C)C)CCN(C)C3)c1O  -24.7%
79. CCc1cccc(NC2c3ccccc3C(=O)N2c2ccc(C)cn2)c1 (centres unmarked)  -25.5%
80. Cc1[nH]nc2nc(SCC(=O)NCC3CCCO3)n(-c3ccc(Br)cc3)c(=N)c12 (centres unmarked)  -26.4%
81. CCC(c1nnnn1CCc1ccccc1)N1CCN(C(=O)c2ccco2)CC1.Cl (centres unmarked)  -28%
82. COc1cccc(-c2c(NC(=O)c3ccco3)n(-c3ccc(C)cc3)nc(C)c2=O)c1  -30.7%
83. O=C(CC1SCCNC1=O)Nc1cc(Cl)cc(Cl)c1 (centres unmarked)  -31.4%
84. Cc1nn2c(c1-c1ccccc1)NC1=C(C(=O)CCC1)C2c1ccccc1 (centres unmarked)  -39.1%
85. COc1ccc(C(=O)N[C@H](C(=O)OCc2cc(=O)oc3cc(C)ccc23)C(C)C)cc1  -44.3%
86. Cc1cc(=O)oc2c(C)c(OCC(=O)N3CCN(C(=O)C4COc5ccccc5O4)CC3)ccc12 (centres unmarked)  -50.4%
87. Cc1cccc(CN2CCc3c(OCC(=O)NCc4ccco4)cccc3C2=O)c1  -51.2%
88. COc1ccc(-n2c(SCCNCCO)nc3sc4c(c3c2=O)CCCC4)cc1  -55.7%
89. CN1CCN(c2nc3c(c(=O)[nH]c(=O)n3C)n2Cc2ccc([N+](=O)[O-])cc2)CC1  -59%
